According to PubChem BioAssay AID488969 (Vanderbilt High Throughput Screening Facility, 2010):
In all, about 110,000 compounds were measured (“z-score”: median about -0.1, highest 2% from about 2 on). The list shows a part of the results.

Biological target: Metabotropic glutamate receptor 8 (Rattus norvegicus) (UniProt P70579)
Assay: rat mGluR8 modulators via GIRK flux, primary screen, cell-based, thallium flux, HTS (AID 488969)
Conditions: HEK293 rat mGluR8, GIRK (G protein-gated inwardly rectifying potassium channel) thallium flux, FluoZin2; at 10 µM; stronger effect = higher value; submaximal glutamate (EC20) added with thallium

Chain of UniProt P70579 (P70579 whole entry, looked up): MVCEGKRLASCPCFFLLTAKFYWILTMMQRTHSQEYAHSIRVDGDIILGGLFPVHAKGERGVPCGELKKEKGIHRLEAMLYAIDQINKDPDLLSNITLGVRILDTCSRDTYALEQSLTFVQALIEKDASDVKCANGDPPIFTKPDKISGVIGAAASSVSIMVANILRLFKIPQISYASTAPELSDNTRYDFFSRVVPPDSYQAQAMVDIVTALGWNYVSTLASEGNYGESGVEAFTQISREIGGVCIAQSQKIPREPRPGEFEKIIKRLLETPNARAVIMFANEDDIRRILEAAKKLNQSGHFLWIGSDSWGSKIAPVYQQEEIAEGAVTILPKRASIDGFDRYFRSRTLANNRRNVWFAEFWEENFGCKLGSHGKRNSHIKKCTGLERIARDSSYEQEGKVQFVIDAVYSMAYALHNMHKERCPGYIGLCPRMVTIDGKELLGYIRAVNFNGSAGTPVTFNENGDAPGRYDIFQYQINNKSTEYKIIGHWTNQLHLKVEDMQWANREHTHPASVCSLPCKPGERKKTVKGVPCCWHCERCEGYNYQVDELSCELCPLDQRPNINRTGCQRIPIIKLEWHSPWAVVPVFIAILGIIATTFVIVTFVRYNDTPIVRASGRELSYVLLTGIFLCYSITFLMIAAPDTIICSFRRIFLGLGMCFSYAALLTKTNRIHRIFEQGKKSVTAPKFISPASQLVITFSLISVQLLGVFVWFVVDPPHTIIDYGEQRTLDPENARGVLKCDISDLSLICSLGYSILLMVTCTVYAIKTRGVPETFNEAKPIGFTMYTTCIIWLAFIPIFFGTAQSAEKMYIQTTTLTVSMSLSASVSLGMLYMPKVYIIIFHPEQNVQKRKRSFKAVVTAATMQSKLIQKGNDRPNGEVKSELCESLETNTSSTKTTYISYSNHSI

Point of comparison: `O=C(Nc1ccc(S(=O)(=O)N2CCOCC2)cc1)c1ccc(Br)o1`, z-score -0.545. Against it:
- COc1ccc(-c2ccc(C#N)c(SCC(=O)OCc3ccccc3)n2)cc1OC — higher, -0.104
- O=C(O)CSc1cccc[n+]1[O-] — higher, -0.138
- COc1ccc2oc(=O)c(C(=O)N3CCc4ccccc43)cc2c1 — higher, -0.212
- CCOC(=O)C1=C(C)NC(=O)NC1c1ccc(Br)o1 (stereo unspecified) — higher, 2.92
- O=C1C=C(Nc2ccccc2O)c2ccccc2C1=O — higher, 0.327
- COC(=O)Nc1nc2c(C)cccc2s1 — higher, 0.241
- O=C(CCN1C(=O)CSC1=O)Nc1ccc(Br)cc1 — higher, 0.938
- O=C(Cn1nnc(-c2ccccc2Cl)n1)N/N=C/c1ccc(-c2cccc(Cl)c2)o1 — higher, -0.0407
- COc1ccc(CCNc2cc(C)nc3c(-c4ccc(Cl)cc4)cnn23)cc1OC — higher, -0.051
- COc1ccc(-c2nc3c(c4nnc(SC(C)C(=O)Nc5ccccc5)n24)COC(C)(C)C3)cc1 (stereo unspecified) — higher, -0.351
- O=C(CCn1ccc([N+](=O)[O-])n1)NC1CCCCCC1 — higher, 0.235
- O=C1CCCC2=C1C(c1ccc(Cl)cc1)N1C(=O)CCSC1=N2 (stereo unspecified) — higher, -0.142
- C=C(C)Cn1c(CCNC(=O)CC)nc2ccccc21 — higher, -0.285
- c1ccc(CCNc2nc(-c3cccnc3)cs2)cc1 — higher, -0.023
- COc1ccc(N2CC(C(=O)OCC(=O)NCc3ccccc3)CC2=O)cc1 (stereo unspecified) — higher, -0.103
- Cc1ccc(-c2c3c(=O)n(C)c(=O)n(C)c3cn2CCCN2CCOCC2)cc1 — higher, 0.228
- Cc1ccc(C2(C)NC(=O)N(CC(=O)NCCC3=CCCCC3)C2=O)cc1 (stereo unspecified) — higher, -0.168
- Cn1c(SCC(=O)Nc2cc([N+](=O)[O-])ccc2F)nnc1C(F)(F)F — higher, 0.166
- O=C(COc1ccc(F)cc1)OCCN1CCOCC1 — higher, -0.127
- O=C(NCCOC(=O)C1COc2ccccc2O1)c1cccnc1 (stereo unspecified) — higher, 1.24
- CC1(C(=O)OCC(=O)c2c[nH]c3ccccc23)CC1(Cl)Cl (stereo unspecified) — higher, -0.259
- CCc1cc2c(=O)c(-c3nc4ccccc4n3C)c(COCC(=O)O)oc2cc1OC(=O)C(C)(C)C — higher, 0.313
- c1ccc(Cn2nnc3c(N4CCc5ccccc54)ncnc32)cc1 — higher, -0.0353
- CCOC(=O)N1CCN(C(=O)COc2ccc3c(c2)C(=O)CC2(CCN(C(C)=O)CC2)O3)CC1 — higher, 0.657
- Cc1ccc(C(=O)NNc2cc(=O)n(C)c(=O)n2C)cc1C — higher, -0.15
- Cc1noc(C)c1COc1cccc(C(=O)OC(C)C(=O)Nc2ccc3c(c2)OCO3)c1 (stereo unspecified) — higher, 0.216
- c1ccc(-c2nnc(SCc3nc4ccccc4[nH]3)o2)cc1 — higher, -0.0645
- CCC(c1nnnn1CC1CCCO1)N(CCN1CCOCC1)Cc1cc2cc(C)ccc2[nH]c1=O (stereo unspecified) — lower, -0.902
- COc1ccc(C2C(C#N)=C(C)NC3=C2C(=O)CC(C)(C)C3)cc1 (stereo unspecified) — higher, 0.28
- Cc1ccccc1N1CC(C(=O)Nc2nnc(SCC(=O)Nc3nccs3)s2)CC1=O (stereo unspecified) — higher, -0.248
- O=C(OCc1cccc2ccccc12)c1ccc2c(=O)[nH]c(CN3CCOCC3)nc2c1 — higher, -0.0979
- CC(=O)C1=C(O)C(=O)N(c2nnn(C)n2)C1c1cccs1 (stereo unspecified) — higher, 0.175
- CC(=O)Nc1ccc(NC(=O)c2ccc(NS(=O)(=O)c3cc(C(C)(C)C)cc(C)c3C)cc2)cc1 — higher, -0.0167
- N#Cc1nc(-c2cccs2)oc1NCCc1ccccc1 — lower, -1.55
- O=C(N/N=C\c1ccc(Cl)cc1Cl)c1sccc1-n1cccc1 — higher, -0.203
- Cc1cc(C)c2c(c1)NC(=O)C2(O)CC(=O)c1cccs1 (stereo unspecified) — higher, -0.0381
- COc1cc(C(=S)N2CCCCC2)ccc1O — higher, 0.0785
- N=C1N(/N=C/c2ccccc2)C(=Nc2ccccc2)C(=S)N1c1ccccc1 — higher, 1.02
- CCOc1ccccc1N(CC(=O)O)S(=O)(=O)c1ccccc1 — lower, -0.8
- CN(C)CCOc1ccccc1-c1ccccc1 — higher, 0.521
- CCN(CC)CCOC(=O)c1ccc(NC(=O)C2(c3ccccc3)CCCC2)cc1 — higher, 0.225
- CN(C)C(=O)COc1ccc2cc(-c3ccccc3)c(=O)oc2c1 — higher, 2.32
- CCCCc1c(C)c(C#N)c2[nH]c3ccccc3n2c1=O — higher, 0.124
- CC1=C(C(=O)OC(C)C)C(c2cccs2)C(C(=O)OC(C)C)=C(C)N1 — higher, -0.281
- CCN(CC)S(=O)(=O)c1ccc(NC(=O)CSc2ncnc3ccccc23)cc1 — higher, -0.296
- CCN(CC)c1ccc(/C=N/N2CCOCC2)cc1 — higher, -0.0852
- O=C(c1cc([N+](=O)[O-])ccc1N1CCCCC1)N1CCc2ccccc21 — lower, -1.08
- O=C(CSc1nc2[nH]ncc2c(=O)[nH]1)NCc1ccc(F)cc1 — higher, -0.456
- N#Cc1ccc(-c2cccnc2)nc1SCc1ccc(Cl)cc1Cl — higher, 0.0707
- Cc1nc(S/C(=C/c2ccc(-c3ccc(Cl)cc3)o2)C(=O)O)n[nH]1 — lower, -0.557
- COc1cc(OC)cc(C(=O)OCc2cc3ccccc3[nH]c2=O)c1 — higher, 0.455
- CCOC(=S)N/C(=N\S(=O)(=O)c1ccccc1)c1ccccc1 — higher, 0.911
- CCN(CC)CCNc1nc(-c2ccccc2)c2c(c1C#N)CC(C)(C)OC2 — higher, 1.1
- CCC(c1nnnn1Cc1ccccc1)N1CCN(C(=O)c2ccco2)CC1 (stereo unspecified) — lower, -0.92
- Cc1nnc(NCCc2ccccc2)n(N)c1=O — higher, 0.495
